# Experimental data reported in the supplement of paper PMC11417369.
# The list shows a part of the results.
# System: PfSIP2 AP2 domain 1 (GST-tagged)
# Assay: gcPBM binding intensity (ln(normalized median fluorescence intensity)); higher = stronger DNA binding
# Method in brief: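 Binding intensity is defined as the maximum Masliner-normalised natural-log median intensity across replicate spots for either probe orientation. It was measured on an Agilent 4 × 180k array of primer-extended double-stranded 36-bp intergenic genomic probes and negative controls, to which GST-tagged P. falciparum DNA-binding domains made in E. coli were applied for 1 h in 1× PBS with 1% milk, 0.2 mg/ml BSA, 0.5% salmon testes DNA and 0.03% Triton X-100. Detection was by Alexa488 anti-GST antibody and scanning at 488 nm.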
row,Sequence,gcPBM binding intensity (ln)
1,ATAGTACAACAGGTTCTTGACAAACAATATGAATGT [GTGCAC_negctrl_site442],7
2,TTTATATAATTTTTTTGTACATATATATGAATACAT [XGTACX_site2316],7.11
3,TAATTTTTTTTTTTTTTTCATTCTTTTCCTTTGATT [CACACA_negctrl_site1365],6.47
4,TACTAACATAAAGACACACACCACATAAAATAAATA [CACACA_site7663],7.2
5,CTTATTTTGTTATAAGTGCATTTTTTAAAATTTCTT,9.64
6,ATAGTATACAGACACACACACACACCGATATATATA [CACACA_site8511],7.43
7,GGAAGAAAACTTAGGTGTACATATAAAACGATATAA [XGTACX_site3118],7.13
8,TATGAACACAGACACACACACAAAAAAAAAAAAAAA [CACACA_site7037],7.01
9,TATACCTTTGCGTGTGCATGCGCTTATATATATTTT [TGCATGCA_site152],7.69
10,TTTATGTGTATGTTTACACACATAAAAAAATATATG [CACACA_site3039],7.01
11,TATTTTTAATATTTTGCATGCAGTATTTTATAAAAT [TGCATGCA_site250],7.17
12,ACAATTCCCGTATGATGTACTTTTTTCCACTTTTTC [XGTACX_site1811],7.1
13,TTTTTGTTATTATGTGTGCACATATATATATATATA,9.79
14,TATGTTATTATTTGTACACACACATATATATCCTTG [CACACA_site5910],7.23
15,AACAAATATCCCAAAAGTACACATATAAAAAAAAAA [XGTACX_site4126],7.26
16,ATTATCTTATGTTATTTATTTGTCCCACATTTGTTA [TGCATGCA_negctrl_site402],7.07
17,CATACACCCAGACACACACACATATATATATATATA [CACACA_site634],9.39
18,TACCTAATATGTTATACACACATTAGAAGTACATAT [CACACA_site5375],7
19,ATAAAAAAAAAAAAAAAATATATATATATATATATA [XGTACX_negctrl_site424],9.64
20,TTATTTTTATTATTTTGTATATATATTTATAGAAAA [XGTACX_negctrl_site465],7.24
21,TGTAATAACGTTATAAAAAGTATAAAAAAAAAAAAA [CACACA_negctrl_site943],6.85
22,TATATACTTTTTAATCACACTTCTTTAAAAAAAGTA [CACACA_negctrl_site1380],7.11

row,Sequence,gcPBM binding intensity (ln)
1,TTTTAGGTCTGAATGTGTACTAAATAATATAAGTAT [XGTACX_site6554],7.37
2,AATAAATAAATAAATTAATAAATTAATAAATTAATA [GTGCAC_negctrl_site37],6.6
3,CACACAAAGGAATATACACACATATTTATATTTATA [CACACA_site7841],6.93
4,GTATATAATTTTTTATGTACTAAATTATATGTTTTT [XGTACX_site4907],6.87
5,CAAAATTTTTATAAGTCACACATTATCTAAGCTTAT [CACACA_site5747],6.69
6,TACAACATATTCAAATGTACAAATATAGGAATGAAA [XGTACX_site2730],7.08
7,AGCGTATTATACTGACGTACATTTTATGTAACTCCA [XGTACX_site2715],6.81
8,AACATAAAATGGATATGTACATAAAAATATATACTC [XGTACX_site7775],6.9
9,TTATGTATTCATAACACATGCAAATAGGATCATATA [TGCATGCA_site731],7.08
10,CGTTAGAGGGCTTTATCACACATGAAAAAAAAAAAA [CACACA_site5155],6.94
11,CACACGCACAGACACACACACACATATAAATATGTA [CACACA_site6300],7.58
12,ATATGATTTCACAAGACACACACATACAAATTTATA [CACACA_site9296],7.2
13,AAAAAAAAAAAAAACACACACAAATTTAATATATAT [CACACA_site1695],7.21
14,TATATATATAACAACACACACAGATCATAAAACTGC [CACACA_site2161],8.05
15,TATATTTATTTTAACACACACATATATATATTATAT [CACACA_site4729],7.39
16,TCCCAAGGAGTAGGCACACATAAAATATTATACATA [CACACA_site717],6.87
17,AAAAAAAAAAAAAAAACACACACAAATTTAATATAT [CACACA_site8492],7.6
18,AAAATTAAAGTAAGGACACACATATATAATACATAT [CACACA_site823],7.05
19,TACACCAAAAAAAAACGTACAAAATCCCACCCAGAC [XGTACX_site4622],7.5
20,TAGTATCAATCTTATACATGCATAAAATAATTATAA [TGCATGCA_site1052],6.95
21,GTGTTCTTGTTATACACACACATATTTATATTTATA [CACACA_site6615],7.24
22,TTTATTTATATAATTACACACATATATACGCAAATG [CACACA_site2794],7.18

row,Sequence,gcPBM binding intensity (ln)
1,TTTTATTCATTAATTTGTACTTATCCTTTTGCTTAA [XGTACX_site1243],7.12
2,TCATTAATTAAATCTTGTACATATTCATATATATAT [XGTACX_site2241],8.85
3,AAAGTATAGATGTATACACACACCAAACGTTAAAAA [CACACA_site3081],6.92
4,TAAGCCAAGGGATAAATAAAATAACAAAATGAAATC [GTGCAC_negctrl_site601],6.78
5,AAATATATTATAAATTGTACGTTTATATATATTATT [XGTACX_site5110],6.89
6,TAAAGTTTTTTTTTAACACACACATAATAAAATAAA [CACACA_site8042],7.28
7,TAAAAAAATAAAAAAAAAAAATTATAAAATTATATA [GTGCAC_negctrl_site302],6.55
8,GACACATATAAATATTAACACACATAATGAATTATA [CACACA_site8881],7.26
9,ACATTATGCCATAAATGTACACATACATATACACAG [XGTACX_site1330],7.13
10,TAACTAAGGAATAATACACACAGAAATATATATTTA [CACACA_site344],6.77
11,GATGATGTTACTTAAGTGCATATAAATTATATTTTA [GTGCAC_site9940],7.87
12,TCATATGTGAAACACACACACACACCCAAAAAAACA [CACACA_site3247],7.05
13,ATTATGTTATTATTTTGTACACATAAATAATACGTT [XGTACX_site816],7.24
14,TGTTTCTTATTTTTTTCACACACTAATCATTTCAAA [CACACA_site8695],7.29
15,GAACAAAAATACTTATGTACACATTAGCAAGGAAAA [XGTACX_site5622],7.12
16,TATACGCATATATACACACACATATATATATATATA [CACACA_site3416],9.43
17,AAACAAAAAAGAAGCACACATATATATATATATATG [CACACA_site2456],7.54
18,ATCTGAAAAATTAATAGTACAATTAATAATTAAACC [XGTACX_site8523],7.16
19,TGTTAATTTCATTTTCTACACACCTATCCTTTTTTT [CACACA_site8157],6.95
20,ACAAATAAATATTCGCGTACTTATATAATATTACGA [XGTACX_site6428],7.02
21,AACAAACAAATAGTTTATTTTGATTTTTTTAAAAAT [CACACA_negctrl_site693],6.67
22,AAAAAAAATATCCGACGTACTATTTTCGTAGAAATA [XGTACX_site6292],6.83

row,Sequence,gcPBM binding intensity (ln)
1,AAAAAAAAAAAAAAAAAAAAAAAAATCACACATTGG [TGCATGCA_negctrl_site412],8.67
2,TTTTGGATGTATTATACATGCATATTATTATAATAT [TGCATGCA_site997],7.25
3,AAAAAAAAAAAATAAAGTACTAAATAATACATTATA [XGTACX_site6203],7.02
4,AGAAAAGAAATTAAATGTACACAACTATAACCAAAT [XGTACX_site8084],7.44
5,TGTACAACAATTTTTGCACACACCAAAACATAAAAT [CACACA_site1598],7.36
6,TTTTATAAAATATAATATAATAATATATGTATAATA [CACACA_negctrl_site1788],6.78
7,ATATATCTACAAATATGTACACACACACATATATAT [XGTACX_site1075],7.33
8,TTTTTTACAATTAACACACTCAAAAATAATATTAAA [CACACA_site5198],6.97
9,AATTTTTTAAATGTGTGTACATATTATTTAAATAAT [XGTACX_site5967],6.9
10,TATATTATATATATATGTACATATGGCAAAACATTA [XGTACX_site7958],7.29
11,AAAAAAAAAAAAAAATGTACCCATAAAATAAGCATT [XGTACX_site8576],7.47
12,AATCACAACGAACACACACACAAAAAAAAAAAAAAA [CACACA_site6790],7.22
13,ATATATATATCTAATTGTACATATTTTATAAATAAG [XGTACX_site4840],8.45
14,AAAAATTAAATGTACACACACCTTAAACAATGTCAT [CACACA_site6958],7.11
15,AAATACTGATTTGGTTGTACATGTGCACTATATAAC [XGTACX_site3795],11.4
16,ATAAATATATTTATATGTACATATAATTTTACATAT [XGTACX_site5440],7.28
17,TATAATCTAACATAATGTACATGTATATGCACTTTA [XGTACX_site369],9.37
18,AATATAAATACTCCTACACACATATAAATATAAATA [CACACA_site7419],7.27
19,TCCACATTAATGTAATGTACAAAATTAGAAAATAAA [XGTACX_site6287],6.95
20,TTTTGATTAAGTGAATTTTTTTATTTATATAAATAT [TGCATGCA_negctrl_site479],6.79
21,TACGAATTAAAAAAGAGTACAAATAAAATATCTACA [XGTACX_site7412],6.73
22,CATACATACATATATACACACATATATAATAATATA [CACACA_site2678],7.32
